Several values for one entry are separate records, joined by “and”; a condition that tells them apart may be missing. Equal values may be shown once. The campaign covered roughly 420,000 compounds. About 64,000 (15%) were called active. Inconclusive results, whose numbers are uncertain, are shown with a selection of clear calls. Calls come from the whole dose curve; as a rule, active = well fitted inhibition curve with a large enough effect; inconclusive = small, poorly fitted or top-dose-only effect; inactive = flat fitted curve, though single readings scatter. Potencies beside an inconclusive call are fits to weak or partial responses and may not hold up.
Test: qHTS for Inhibitors of human tyrosyl-DNA phosphodiesterase 1 (TDP1): qHTS in cells in absence of CPT; note: nearly all actives have a fitted effect of over 55% in size
Settings: DT40 Tdp1-/- hTDP1 cells, no CPT, ATP luminescence, 48 h; activity change, negative = growth inhibition: at 46.2 µM (top of the series) unless noted
How it was run: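 Readout: luminescence from CellTiter-Glo after 30 min in the dark at RT. Cells: DT40 Tdp1-/- with stable hTDP1, 400/well. Exposure: compounds alone, ≥48 hr, 37 °C.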
% is set by controls: 0 for no effect and ±100 for the full control effect; potency is the fitted concentration of half-maximal effect; tags give direction and shape of the fitted curve.

SMILES	Potency	activity change, negative = growth inhibition
Cc1ccc(-n2c(Cc3ccccc3)nnc2SCc2nc(-c3cccs3)no2)cc1	inconclusive: 29.1 µM [inhibitor, single point]	
O=c1c2cc3c(cc2n(Cc2ccc(Cl)cc2)c(=O)n1Cc1nc(-c2ccccc2)no1)OCO3	inactive	
COc1cccc(-c2nc(CS(=O)(=O)CC(=O)Nc3ccccc3C)c(C)o2)c1	inconclusive: 8.2 µM [inhibitor, partial curve]	
Cc1c(N2C(=O)c3ccccc3C2(O)c2ccccc2)c(=O)n(-c2ccccc2)n1C (stereo not given)	inactive	
CCOC(=O)c1c(NC(=O)Cc2cccs2)sc2c1CCCC2		inconclusive: -34.3% [inhibitor]
Cc1cc(C)nc(N/N=C/c2cc(C)n(CC(F)(F)F)c2C)n1	inconclusive: 18.4 µM [inhibitor, single point]	
Cc1ccc(NC(=O)CSc2nnc(Cc3csc(C)n3)o2)cc1	inconclusive: 6.51 µM [inhibitor, single point]	
O=C(NNS(=O)(=O)c1ccc(F)cc1F)c1csc(-c2cccnc2)n1	inactive	
CC(C)c1ncc(CO)n1Cc1c(Cl)cccc1Cl	inconclusive: 29.1 µM [inhibitor, single point]	
Cc1ccc(/C=C/c2onc(C)c2S(=O)(=O)N2CCC(C(=O)N3CCC(N(C)C(C)C)CC3)CC2)cc1	active: 6.51 µM	
CCOC(=O)[C@H](C)N1[C@H](C)[C@H](c2ccccc2)Oc2ccc(Cl)cc2S1(=O)=O	inconclusive: 23.1 µM [inhibitor, single point]	
O=C(COC(=O)c1cccc(Br)c1)Nc1cccc2c1C(=O)c1ccccc1C2=O	inconclusive: 29.1 µM [inhibitor, single point]	
CCOc1ccc(NC(=O)CCN2CCN(c3ccccc3)CC2)cc1	inactive	
Cc1ccc2c(c1)-c1c(cnn1CC(=O)O)CO2	inconclusive: 6.51 µM [inhibitor, partial curve]	
COC(=O)c1cc(S(=O)(=O)NC2CCN(Cc3ccccc3)CC2)cn1C	inconclusive: 20.6 µM [inhibitor, single point]	
CCc1sc(C(=O)Nc2nccs2)cc1C	inconclusive: 29.1 µM [inhibitor, single point]	
FC(F)(F)c1cccc(Nc2cc(-c3ccccc3)nc3ncnn23)c1	inconclusive: 5.17 µM [inhibitor, full curve]	
Cc1ccc(C)c(CN2CCCN(Cc3ccc(F)cc3)S2(=O)=O)c1	inconclusive: 29.1 µM [inhibitor, single point]	
O=C(NCc1ccco1)c1ccc2c(c1)C(=O)c1ccccc1-2	inconclusive: 25.9 µM [inhibitor, single point]	
Cn1c(=O)[nH]c(=O)c2c1nc(N1CCCCCC1)n2CCOc1ccccc1	active: 23.1 µM	
Sc1oc(-c2ccccc2)cc1C=Nc1ccccc1	active: 16.4 µM	
Cc1ccc(-c2noc(C(C)NS(=O)(=O)c3ccc(C)cc3)n2)cc1 (stereo not given)	active: 20.6 µM	
COCC(=O)Nc1cc(C)cn(Cc2c(F)cccc2Cl)c1=O	inconclusive: 18.4 µM [inhibitor, single point]	

SMILES	Potency	activity change, negative = growth inhibition
COc1ccc(OC)c(CN2CCC(Cc3ccccc3)CC2)c1	active: 16.4 µM	
CC(C)N1CCN(c2ccc(OC[C@H]3CO[C@](Cn4cncn4)(c4ccc(Cl)cc4Cl)O3)cc2)CC1	inconclusive: 10.1 µM [inhibitor, single point] and inconclusive: 23.1 µM [inhibitor, single point]	
O=C(O)C(Cc1cc(Cl)ccc1Cl)Sc1nc2ccccc2[nH]1 (stereo not given)	inconclusive: 16.4 µM [inhibitor, single point]	
N#CCCN(Cc1cccnc1)C(=O)c1ccc(S(=O)(=O)N2CCOCC2)cc1	inactive	
Brc1ccc(Nc2nc(-c3cccnc3)cs2)cc1	inactive	
COc1ccc(S(=O)(=O)N2CCN(c3cc(-c4ccccc4)nc4ncnn34)CC2)cc1	active: 16.4 µM	
CCOCCCNC(=O)c1c(N)n(-c2ccc3c(c2)OCO3)c2nc3ccccc3nc12	inactive	
OC[C@@H]1CN(Cc2ccc3c(c2)OCO3)C[C@H](n2cnc3c(NCc4ccco4)ncnc32)O1	inactive	
Cc1ccccc1Nc1c(-c2ccccn2)nc2c(C)cccn12	inconclusive: 20.6 µM [inhibitor, single point]	
CCn1c(N2CCN(C(=O)/C=C/c3ccccc3)CC2)nc2ccccc21	inconclusive: 29.1 µM [inhibitor, single point]	
COc1cc(CNC(=O)c2ccc(Cn3nc(C)c(Cl)c3C)o2)cc(OC)c1	active: 8.2 µM	
COc1ccc(-c2oc(=O)c3cc(OC)c(OC)cc3c2/C=C/c2ccc(OC(C)=O)cc2)cc1	active: 9.2 µM	
Cn1c(=O)n(CCO)c(=O)c2c1nc(Br)n2Cc1ccccc1	inconclusive: 20.6 µM [inhibitor, partial curve]	
Cc1cc(NC(=O)CSc2nccn2-c2cccc(C)c2C)no1	active: 20.6 µM	
O=C1/C(=C/C=C/c2ccco2)SC(=S)N1NS(=O)(=O)c1ccccc1	inactive	
Cc1ccccc1N1CCN(C(=O)NCc2cccc(Cl)c2)CC1	inconclusive: 29.1 µM [inhibitor, partial curve, poor fit]	
CCN(CC)S(=O)(=O)c1ccc(Oc2ccccc2)c(N)c1	inconclusive: 8.2 µM [inhibitor, partial curve]	
CCc1ccc(N=C2NC(=O)/C(=C/c3cc(Br)c(OCC(=O)O)c(OC)c3)S2)cc1	inactive	
COc1ccccc1-c1cc(C(=O)N2CCN(S(=O)(=O)c3ccc(C)cc3)CC2)[nH]n1	inconclusive: 16.4 µM [inhibitor, single point]	
O=C1C2CCCN2C(=O)N1CCCCN1CCN(c2cccc(C(F)(F)F)c2)CC1 (stereo not given)	inconclusive: 11.6 µM [inhibitor, partial curve, poor fit]	
CC(C)Oc1ccc(CCc2n[nH]c(=S)n2-c2ccccc2)cc1	inconclusive: 11.6 µM [inhibitor, partial curve]	
COc1cc(C(=O)Nc2ccc(Nc3ccccc3)cc2)cc(OC)c1OC	inconclusive: 29.1 µM [inhibitor, single point]	
